The RNAGym collection of RNA variant scans (doi:10.1073/pnas.2313332121)
Variants at the background level are over-represented here.

B1: TPR 5TU (parent)
chain: GGAUCUUCUCGAUCUAACAAAAAAGACAAAUCUGCCACAAAGCUUGAGAGCAUCUUCGGAUGCAGAGGCGGCAGCCUUCGGUGGCGCGAUAGCGCCAACGUUCUCAACUAUGACACGCAAAACGCGUGCUCCGUUGAAUGGAGUUUAUCAUG

Variants of: B1
Test: polymerase ribozyme fitness, log enrichment relative to wild type (log ratio); higher = more active; in vitro selection for triplet polymerase activity
In short: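 Fitness compares each genotype's enrichment to that of the wild type on a logarithmic scale, averaging replicates with inverse-variance weights. The logarithm is base 2. Enrichment came from Illumina sequencing of input and output libraries after one triplicate round of in vitro selection, which included frozen incubation at −7 °C, of PCR-built, transcribed mutant libraries of each subunit of a heterodimeric triplet polymerase ribozyme. Only genotypes with ≥10 input reads and ≥1 read per output were kept.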

U15G C27A C75A C85U C116A and C14A C69A G71C C79U G83C U90C cannot be ordered by “polymerase ribozyme fitness (log ratio)” value: no more than -4.2 for the first, no more than -4.2 for the second.

C14A A19U A26U A28U C51A G86U A122C and C14G A21U A30U U31C cannot be ordered by “polymerase ribozyme fitness (log ratio)” value: no more than -4.2 for the first, no more than -4.2 for the second.

Going from C14U A30G A39C A49C G58A C96A A106C G126A to C14G C69G C96A G124A, the “polymerase ribozyme fitness (log ratio)” value rises from no more than -4.2 to -3.69.

C14G A40G A41C C54U C85G C99U and C14U C18U C36U G50C C85A U144C cannot be ordered by “polymerase ribozyme fitness (log ratio)” value: no more than -4.2 for the first, no more than -4.2 for the second.

U13G U61A C85A G92U U148C and C14A G42C A60G G86U C99G cannot be ordered by “polymerase ribozyme fitness (log ratio)” value: no more than -4.2 for the first, no more than -4.2 for the second.

U15C A39C U44C C93U C108G A121C U139G and C14G C27G G67A G92A A107G cannot be ordered by “polymerase ribozyme fitness (log ratio)” value: no more than -4.2 for the first, no more than -4.2 for the second.

U15A A39C C123U A137C U151C and C14A A16U A19U A20G A107C G124A cannot be ordered by “polymerase ribozyme fitness (log ratio)” value: no more than -4.2 for the first, no more than -4.2 for the second.

U15G A19U C54U G68U C85G A91U G126U G128U and C14U G50A G58C G65A C103A A107U G124U U127G cannot be ordered by “polymerase ribozyme fitness (log ratio)” value: no more than -4.2 for the first, no more than -4.2 for the second.

C14G G58U A64G C85U and C14G A20G C75A C96G G141C cannot be ordered by “polymerase ribozyme fitness (log ratio)” value: no more than -4.2 for the first, no more than -4.2 for the second.

U13G U44G C87A C96U C108G A110U and C14G C87A A107U cannot be ordered by “polymerase ribozyme fitness (log ratio)” value: no more than -4.2 for the first, no more than -4.2 for the second.

Compared with C14G C85A C116U A122C, C14U G81A is higher in “polymerase ribozyme fitness (log ratio)” value: no more than -4.2 for the first, -1.14 for the second.

C14G C32U G48A C103U U127C and C14U A20U C36G G88A G92A U148C cannot be ordered by “polymerase ribozyme fitness (log ratio)” value: no more than -4.2 for the first, no more than -4.2 for the second.

C14A C35G A39U C96A A119C and U15G A26G A52U U53A G65A G80U C87G C96G A97G C108G cannot be ordered by “polymerase ribozyme fitness (log ratio)” value: no more than -4.2 for the first, no more than -4.2 for the second.

C14A U102G and C14A A26U A29G C57G C93A G141C cannot be ordered by “polymerase ribozyme fitness (log ratio)” value: no more than -4.2 for the first, no more than -4.2 for the second.

C14G U33G U56A C57U C63A C87U and C14U A16C A26U G65U G92C cannot be ordered by “polymerase ribozyme fitness (log ratio)” value: no more than -4.2 for the first, no more than -4.2 for the second.

C14G A26U A40C G68C G94A A142G and U15C U53A A98G C105G U146G cannot be ordered by “polymerase ribozyme fitness (log ratio)” value: no more than -4.2 for the first, no more than -4.2 for the second.

First: C14U C54U G84A G133U
Second: C14U C35G G58A G71C G84A A110G
The “polymerase ribozyme fitness (log ratio)” value of the first is higher: -3.87 for the first, no more than -4.2 for the second.

First: C14U G50C U55A G86U C105G G117C
Second: U15C C51A G86U
The “polymerase ribozyme fitness (log ratio)” value of the first is lower: no more than -4.2 for the first, -1.6 for the second.

U15A C18G C87A A97G A142C and C14U A16U C36A U82A C85A C103A U134G G136A cannot be ordered by “polymerase ribozyme fitness (log ratio)” value: no more than -4.2 for the first, no more than -4.2 for the second.

C14G G88C A137U and U15G C35G G50C C96G G143U cannot be ordered by “polymerase ribozyme fitness (log ratio)” value: no more than -4.2 for the first, no more than -4.2 for the second.

C14U A39U G86U A106G and C14U A19C A41C U53A G68U G88C C99G G126C cannot be ordered by “polymerase ribozyme fitness (log ratio)” value: no more than -4.2 for the first, no more than -4.2 for the second.

C14G A73G C79G A98G G143C and U15G C18G A20G G80C C85G A106C U139G cannot be ordered by “polymerase ribozyme fitness (log ratio)” value: no more than -4.2 for the first, no more than -4.2 for the second.

Compared with C14G C95U, C14U A52G U56C G94A C108U A137C A138U is lower in “polymerase ribozyme fitness (log ratio)” value: -1.57 for the first, no more than -4.2 for the second.

U15G C36U A47G A89G G92C A115U C129A and C14A A52C A91U U101A cannot be ordered by “polymerase ribozyme fitness (log ratio)” value: no more than -4.2 for the first, no more than -4.2 for the second.

C14A A16U U44A G50U C51A U90A G92A A107G G112U A137G and U15G A29U G100C C118A C123A G133U A142U cannot be ordered by “polymerase ribozyme fitness (log ratio)” value: no more than -4.2 for the first, no more than -4.2 for the second.

Compared with C14G A26G U53C U77G G86U U111C C114A A137G, C14U G50U is higher in “polymerase ribozyme fitness (log ratio)” value: no more than -4.2 for the first, -1.15 for the second.

C14G U53C C75U G94U G143A and C14U G88A A91G cannot be ordered by “polymerase ribozyme fitness (log ratio)” value: no more than -4.2 for the first, no more than -4.2 for the second.

C14G A22C C87U C105G U130G and C14G C54U C76G U82C G86A A107C G136U cannot be ordered by “polymerase ribozyme fitness (log ratio)” value: no more than -4.2 for the first, no more than -4.2 for the second.

C14G U45C G88A and U15C C38U G86U A91U G126U U134G A142G cannot be ordered by “polymerase ribozyme fitness (log ratio)” value: no more than -4.2 for the first, no more than -4.2 for the second.

C14U A49G A73U A89G C93A and C14A A49C cannot be ordered by “polymerase ribozyme fitness (log ratio)” value: no more than -4.2 for the first, no more than -4.2 for the second.

Compared with C14A C93U, U15G is higher in “polymerase ribozyme fitness (log ratio)” value: -2.33 for the first, -0.334 for the second.

First: U15A
Second: U15C
The “polymerase ribozyme fitness (log ratio)” value of the first is lower: -0.182 for the first, 0.917 for the second.

C14G A17C U78G and C14G A19G G46A C72G G84U cannot be ordered by “polymerase ribozyme fitness (log ratio)” value: no more than -4.2 for the first, no more than -4.2 for the second.

C14G C18G U82G G84C and C14G G25U G50A C51U U145A cannot be ordered by “polymerase ribozyme fitness (log ratio)” value: no more than -4.2 for the first, no more than -4.2 for the second.

Going from C14G A30G G46C C95U to C14U G59A C96G C131G G133U, the “polymerase ribozyme fitness (log ratio)” value falls from -4.17 to no more than -4.2.

First: C14G A37C G70A A106G G126U
Second: C14G C51U C96U
The “polymerase ribozyme fitness (log ratio)” value of the first is lower: no more than -4.2 for the first, -3.1 for the second.

C14G A23U U61A A119U G136A and C14U G50C A89G C99G U148C U151A cannot be ordered by “polymerase ribozyme fitness (log ratio)” value: no more than -4.2 for the first, no more than -4.2 for the second.

U15A U55A U56A C69U C79U G86A A91U G133A G141A and C14U A28U A37C C96A A119G cannot be ordered by “polymerase ribozyme fitness (log ratio)” value: no more than -4.2 for the first, no more than -4.2 for the second.

C14G C93U C108G C116A and C14A A24U U56A C72A G80U cannot be ordered by “polymerase ribozyme fitness (log ratio)” value: no more than -4.2 for the first, no more than -4.2 for the second.

C14U U31G G92A C103U U109G and C14U G50C G74C C93U A115U C116U cannot be ordered by “polymerase ribozyme fitness (log ratio)” value: no more than -4.2 for the first, no more than -4.2 for the second.

U15G C32G A40C A49C A52G C76U C87U and U15G A26U C38G G42A U44A C95G C99U cannot be ordered by “polymerase ribozyme fitness (log ratio)” value: no more than -4.2 for the first, no more than -4.2 for the second.

C14G A29G C54U C132G and U15C A22G G42A G84A G133U cannot be ordered by “polymerase ribozyme fitness (log ratio)” value: no more than -4.2 for the first, no more than -4.2 for the second.
